In PubChem BioAssay AID1030 (National Center for Advancing Translational Sciences (NCATS), 2008):
“And” between values parts separate entries of the source, which are not always exact repeats. Equal entries are not always repeated. The campaign covered roughly 220,000 compounds. About 16,000 (7.3%) were called active. The inconclusive results got no clear call from the source; some entries with a clear call stand among them for comparison. Calls follow the shape of the dose curve; as a rule, active = well fitted inhibition curve with a large enough effect (not every such curve was filed as active); inconclusive = small, poorly fitted or top-dose-only effect, or another doubt; inactive = no such curve, though single readings can be large or run the other way. Potencies of inconclusive entries are doubtful fits and often do not repeat.

These molecules were tested against Aldehyde dehydrogenase 1A1 (Homo sapiens) (UniProt P00352) (assay: qHTS Assay for Inhibitors of Aldehyde Dehydrogenase 1 (ALDH1A1)). Conditions: Purified ALDH1A1, NADH fluorescence, propionaldehyde substrate; series mostly up to 75.3 µM.
Potency is read from the fitted curve at half-maximal effect; tags tell the direction and shape of the fitted curve.

Sequence of UniProt P00352 (P00352 whole entry, looked up): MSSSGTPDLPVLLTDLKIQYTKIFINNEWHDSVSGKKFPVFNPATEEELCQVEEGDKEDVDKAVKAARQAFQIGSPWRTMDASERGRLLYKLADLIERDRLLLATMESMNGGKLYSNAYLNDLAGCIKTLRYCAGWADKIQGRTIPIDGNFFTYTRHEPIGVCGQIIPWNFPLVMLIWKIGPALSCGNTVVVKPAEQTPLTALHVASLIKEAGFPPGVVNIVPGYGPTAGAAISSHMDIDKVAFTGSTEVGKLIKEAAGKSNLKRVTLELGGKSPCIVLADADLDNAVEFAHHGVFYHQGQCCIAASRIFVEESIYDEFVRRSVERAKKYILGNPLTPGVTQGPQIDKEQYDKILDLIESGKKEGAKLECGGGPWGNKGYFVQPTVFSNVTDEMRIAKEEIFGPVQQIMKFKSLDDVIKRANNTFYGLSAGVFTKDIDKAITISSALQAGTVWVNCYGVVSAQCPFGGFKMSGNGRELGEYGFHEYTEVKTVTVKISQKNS

| Structure (SMILES) | Potency |
| --- | --- |
| Cn1nnnc1SCc1nc2scc(-c3ccccc3)c2c(=O)[nH]1 | inconclusive: 39.8 µM [inhibitor, single point] |
| COc1ccc(COc2cc(-c3cccc(OC)c3)nc3ccc(NC(=O)c4ccc(N(C)C)cc4)cc23)cc1 | inconclusive: 20 µM [inhibitor, partial curve] and inconclusive: 31.6 µM [inhibitor, single point] |
| CC(Oc1ccccc1)C(=O)Nc1ccc(S(=O)(=O)NCC2CCCO2)cc1 (configuration not stated) | inactive |
| Cc1ccccc1NC(=O)Cc1c(O)c2ccccc2[nH]c1=O | inconclusive: 35.5 µM [inhibitor, single point] |
| O=C(O)CCCC(=O)Nc1ccc(Cl)cc1 | active: 28.2 µM |
| CCC(=O)OCCNc1cc(Sc2nc3ccccc3s2)c2nonc2c1[N+](=O)[O-] | active: 8.91 µM |
| CNC(=S)NC12CC3CC(CC(C3)C1)C2 | inactive |
| Cc1ccc(-c2ccc(/C=N/c3ncn[nH]3)o2)cc1Cl | inconclusive: 7.94 µM [inhibitor, full curve] |
| CCc1ccc(-c2nc(CSCC(=O)NCc3ccco3)c(C)o2)cc1 | inconclusive: 39.8 µM [inhibitor, single point] |
| COc1cccc(OCc2nc(-c3ccc(Br)o3)no2)c1 | inconclusive: 39.8 µM [inhibitor, single point] |
| COc1ccccc1-n1c(C)c2c(OC)cccc(=O)c2c1C | inconclusive: 25.1 µM [inhibitor, single point] |
| CC(=O)c1cc(F)c(N2CCN(C(=O)COc3ccccc3F)CC2)cc1C | inconclusive: 39.8 µM [inhibitor, single point] |
| Cc1ccccc1Cn1ccc(NC(=O)c2cc3nc(-c4ccco4)cc(C(F)(F)F)n3n2)n1 | inconclusive: 37.7 µM [inhibitor, single point] |
| O=C(c1ccc(COc2ccccc2Cl)o1)N1CCN(c2ccccc2)CC1 | inconclusive: 39.8 µM [inhibitor, single point] |
| CCOC(=O)CNC(=O)c1nn(-c2cccc(OC)c2)c(=O)c2ccccc12 | inactive |
| O=C(CSc1n[nH]c(-c2ccc(S(=O)(=O)NC3CCCCC3)cc2)n1)N1CCCC1 | inconclusive: 35.5 µM [inhibitor, single point] |
| O=C(Cn1cnc2ccccc2c1=O)NCCC(=O)Nc1ccc2c(c1)OCCO2 | inconclusive: 37.7 µM [inhibitor, partial curve, poor fit] |
| O=S(=O)(Nc1ccc(O)cc1)c1cccc2cccnc12 | inconclusive: 20 µM [inhibitor, partial curve] |
| COc1ccc(-c2cc(C(=O)N3CCOCC3)c3cc(C)ccc3n2)cc1 | inconclusive: 31.6 µM [inhibitor, partial curve] |
| O=C(NC1CCCCC1)[C@H](CSCc1ccccc1)N1Cc2ccccc2C1=O | inactive |
| O=C(Nc1nc2c(s1)CCCC2=O)c1cnccn1 | inconclusive: 15.8 µM [inhibitor, partial curve] |
| COc1ccc(Cc2n[nH]c(=S)n2-c2ccc3c(c2)OCCO3)cc1 | inconclusive: 28.2 µM [inhibitor, single point] |
| COc1ccc(N2C(=O)C3CCCN3C2c2cccc(Br)c2)cc1 (configuration not stated) | inconclusive: 17.8 µM [inhibitor, partial curve] |
| CC(C)(C)NC(=O)C(c1cccs1)N(C(=O)c1csnn1)c1ccccc1F (configuration not stated) | inactive |

| Structure (SMILES) | Potency |
| --- | --- |
| COc1ccc(C)cc1NC(=O)CN1CCN(C/C=C/c2ccccc2)CC1 | inactive |
| C/C=C/CSc1nc2c(c(=O)[nH]c(=O)n2C)n1Cc1ccc(C)cc1 | active: 10 µM |
| CCOc1ccc(-c2nc(=S)[nH][nH]2)cc1 | active: 25.1 µM |
| CCCCCn1c(C(Cc2ccccc2)NC(=O)COC)nc2ccccc21 (configuration not stated) | inactive |
| O=C(CNC(=O)c1cccc(F)c1)N/N=C/c1ccc(O)c([N+](=O)[O-])c1 | inactive |
| CC(C)Cn1c(-c2ccc(Br)cc2)c[nH]c1=S | inconclusive: 0.501 µM [inhibitor, full curve, poor fit] |
| CCOc1ccc(C2C(C(=O)O)c3ccccc3C(=O)N2CCN2CCOCC2)cc1 (configuration not stated) | inactive |
| O=C(Oc1cccc(C(=S)N2CCOCC2)c1)c1cc([N+](=O)[O-])cc([N+](=O)[O-])c1 | inconclusive: 39.8 µM [inhibitor, single point] |
| CCCC(=O)Nc1ccc2c(c1)nc1n2CCN(C2CCCCC2)C1 | inconclusive: 35.5 µM [inhibitor, single point] |
| Cc1cccc(-n2cnc3c(sc4nc(N5CCOCC5)c5c(c43)CCCC5)c2=O)c1 | inconclusive: 28.2 µM [inhibitor, partial curve] |
| O=C(c1cccc(NS(=O)(=O)c2cccc([N+](=O)[O-])c2)c1)N1CCOCC1 | inactive |
| C(=N\n1cnnc1)/c1cccc(Oc2ccccc2)c1 | inactive |
| CCOC(=O)c1c(NC(=O)COC(=O)c2ccc(O)cc2)sc(C(=O)N(C)C)c1C | inconclusive: 14.1 µM [inhibitor, partial curve] |
| Cc1ccc(N/N=C(\Cc2nc3ccccc3[nH]2)c2ccccc2)cc1 | active: 10 µM |
| O=C(OCC(=O)N1CCCCC1)c1ccccc1SCC(=O)N1CCCCC1 | inactive |
| O=C(c1cc2nc(-c3ccco3)cc(C(F)(F)F)n2n1)N1CCCc2ccccc21 | active: 17.8 µM |
| O=[N+]([O-])c1cc2oc3c(c2c(C=NCc2ccccc2)c1O)CCCC3 | inconclusive: 20 µM [inhibitor, single point] |
| Cc1c(/C=N/Nc2ccc(F)cc2)c(O)n(C)c(=O)c1C#N | active: 3.55 µM |
| CCOc1ccc(NC(N)=O)cc1 | inconclusive: 39.8 µM [inhibitor, single point] |
| CC(C)N=C1NN=C(c2ccc(Cl)c(Cl)c2)CS1 | inconclusive: 28.2 µM [inhibitor, single point] |
| C/C=C(/C)C(=O)OC1c2c(ccc3ccc(=O)oc23)OC(C)(C)C1OC(C)=O (configuration not stated) | inconclusive: 28.2 µM [inhibitor, partial curve] |
| O=C(Oc1ccc2c3c(c(=O)oc2c1)CCC3)c1ccccc1[N+](=O)[O-] | inconclusive: 25.1 µM [inhibitor, single point] |
| Cc1nnc(SCC(=O)Nc2nsc(-c3ccc(Cl)cc3)n2)s1 | inconclusive: 39.8 µM [inhibitor, single point] |
| CC(=O)N1CCc2cc(S(=O)(=O)NCCCN3CCN(Cc4ccccc4)CC3)ccc21 | inactive |

| Structure (SMILES) | Potency |
| --- | --- |
| O=C(Nc1cccnc1)c1ccc(NC(=O)c2ccco2)cc1 | inconclusive: 14.1 µM [inhibitor, partial curve] |
| O=C(Nc1c(S(=O)(=O)c2ccc(Cl)cc2)csc1Br)c1ccccc1Cl | inactive |
| Cc1noc(/C=C/c2ccco2)c1S(=O)(=O)N1CCC(C(=O)NCc2ccco2)CC1 | inconclusive: 39.8 µM [inhibitor, single point] |
| O=C(NNC(=S)NCc1ccco1)c1cccs1 | inconclusive: 35.5 µM [inhibitor, single point] |
| O=C(NN1C(=O)C2C(C1=O)C1C=CC2C12CC2)c1cccnc1 (configuration not stated) | inactive |
| Cc1ccc(C)c2[nH]c(=O)c(CCNC(=O)c3ccco3)cc12 | inconclusive: 39.8 µM [inhibitor, single point] |
| CC(C(=O)N1CCCCC1)N1C(=O)c2ccccc2C1=O (configuration not stated) | inconclusive: 31.6 µM [inhibitor, single point] |
| O=C(CCCc1ccccc1)Nc1ccccn1 | inconclusive: 39.8 µM [inhibitor, single point] |
| CCN(CC)c1ccc(NC(=O)c2ccccc2)cc1S(=O)(=O)Nc1ccccc1OC | active: 1 µM |
| O=C(CSc1nnc(-c2ccc(Cl)cc2)n1-c1ccccc1)N/N=C/c1ccccc1C(=O)O | inconclusive: 11.2 µM [inhibitor, partial curve] |
| CC(=O)Nc1nn(C)c2nc(C)cc(C)c12 | inconclusive: 25.1 µM [inhibitor, partial curve] |
| O=C(N/N=C/c1cc([N+](=O)[O-])ccc1O)C12CC3CC(CC(C3)C1)C2 | active: 0.891 µM |
| CCCSc1cc(=O)n(-c2ccccc2)nc1C(=O)OCC | inconclusive: 39.8 µM [inhibitor, single point] |
| Cc1cc(-c2ccc(/C=N/n3cnnc3)o2)c([N+](=O)[O-])cc1C | active: 10 µM |
| CC(C)n1c(SCCCc2ccccc2)nc2c1c(=O)[nH]c(=O)n2C | inconclusive: 23.8 µM [inhibitor, single point] |
| CCOc1ccc(/C=N/NC(N)=S)cc1 | inactive |
| O=C(CCCSc1nnc(-c2cccs2)n1CC1CCCO1)c1ccccc1 (configuration not stated) | inconclusive: 31.6 µM [inhibitor, single point] |
| Cc1ccc(-n2nc(C(=O)NCc3ccco3)c3c4ccccc4n(C)c3c2=O)cc1 | inconclusive: 35.5 µM [inhibitor, partial curve] |
| CCCn1c(NCc2ccccn2)nc2ccccc21 | inactive |
| CC1=C(C(=O)OC(C)C)C(c2cccs2)N2C(=O)CCSC2=N1 (configuration not stated) | inconclusive: 25.1 µM [inhibitor, partial curve] |
| OCCN1CCOCCN(CCO)CCN(CCO)CC1 | inactive |
| Cc1cc2c(c(=O)n1Cc1cccnc1)C(c1cccs1)C(C#N)=C(N)O2 (configuration not stated) | inconclusive: 12.6 µM [inhibitor, partial curve] |
| COc1ccccc1Cn1c(/C=C/c2ccccc2)nc2ccccc21 | inconclusive: 22.4 µM [inhibitor, partial curve] |
| COc1cccc(NC(=O)CN(C)CC(=O)NC(C)c2ccccc2)c1 (configuration not stated) | inconclusive: 22.4 µM [inhibitor, partial curve] |
